For assay [1], the target named is HIF-1α, endogenous in human cancer cell lines (human (endogenous in H1299, PC3, MDA-MB-231)) (UniProt Q16665). Briefly: co-IP; endogenous proteins in lysates of H1299, PC3 or MDA-MB-231 cells; normoxia or hypoxia; some panels with MG132 or in control versus HAUSP knockdown cells.
Assay [2] addresses HAUSP (USP7), endogenous in human cancer cell lines (human (endogenous in H1299, PC3, MDA-MB-231)) (UniProt Q93009). The assay is described as above.
Assay [3] concerns the target HA-HIF-1α wild type, overexpressed (UniProt Q16665). Description: co-IP; whole cell lysates of 293T cells overexpressing both proteins; lysis in 150 mM NaCl, 1% Nonidet P-40, 1% deoxycholate, 0.1% SDS, 50 mM Tris HCl pH 7.5; protein-A beads; normoxia or hypoxia (1% O2, 18 h).
Assay [4] has as its target HAUSP (USP7) wild type, overexpressed (UniProt Q93009). The assay is described as above.
A further assay addresses HIF-1α^S366A mutant (UniProt Q16665). The description is as above.
The target of assay [5] is HAUSP (USP7), endogenous in human cancer cell lines (human (endogenous in H1299, PC3, MDA-MB-231)) (UniProt Q93009). Briefly: co-IP; endogenous proteins in lysates of H1299, PC3 or MDA-MB-231 cells; normoxia or hypoxia; some panels with MG132 or in control versus HAUSP knockdown cells. This is another data set of the same source.
Assay [6] deals with HAUSP (USP7) wild type, overexpressed (UniProt Q93009). Briefly: co-IP; HAUSP wild type or K443R overexpressed (293T), partner (CBP, AFF4) not said to be overexpressed; hypoxia; anti-CBP antibodies for CBP, HAUSP used to pull down AFF4.
The next assay addresses HAUSP^K443R mutant (UniProt Q93009). Described as above.

The chains behind the UniProt entries cited, without tags or fusion partners. Where a name states a change or a piece, a line headed by the entry shows the natural chain unless it says otherwise.
UniProt Q16665: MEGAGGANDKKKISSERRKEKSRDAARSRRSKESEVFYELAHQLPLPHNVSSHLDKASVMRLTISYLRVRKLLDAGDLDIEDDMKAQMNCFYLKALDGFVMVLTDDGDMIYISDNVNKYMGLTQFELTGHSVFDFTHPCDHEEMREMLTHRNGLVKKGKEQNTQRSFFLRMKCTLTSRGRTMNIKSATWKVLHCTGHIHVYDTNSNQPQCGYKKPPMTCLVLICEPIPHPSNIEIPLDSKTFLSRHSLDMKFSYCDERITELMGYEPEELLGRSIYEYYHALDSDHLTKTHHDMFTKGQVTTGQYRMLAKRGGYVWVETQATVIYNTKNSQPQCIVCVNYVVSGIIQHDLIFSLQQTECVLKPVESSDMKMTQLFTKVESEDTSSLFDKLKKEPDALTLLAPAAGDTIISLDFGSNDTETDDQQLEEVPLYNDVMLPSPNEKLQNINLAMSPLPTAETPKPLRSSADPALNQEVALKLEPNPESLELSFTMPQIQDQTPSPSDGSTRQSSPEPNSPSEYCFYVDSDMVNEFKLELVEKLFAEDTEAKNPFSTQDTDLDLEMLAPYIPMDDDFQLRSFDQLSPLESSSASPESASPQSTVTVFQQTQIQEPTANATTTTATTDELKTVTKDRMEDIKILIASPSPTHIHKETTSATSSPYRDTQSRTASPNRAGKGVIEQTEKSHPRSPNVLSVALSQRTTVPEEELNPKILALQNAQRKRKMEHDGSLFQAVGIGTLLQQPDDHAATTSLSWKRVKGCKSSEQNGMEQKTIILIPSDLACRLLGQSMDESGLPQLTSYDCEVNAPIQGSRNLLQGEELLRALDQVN
UniProt Q93009: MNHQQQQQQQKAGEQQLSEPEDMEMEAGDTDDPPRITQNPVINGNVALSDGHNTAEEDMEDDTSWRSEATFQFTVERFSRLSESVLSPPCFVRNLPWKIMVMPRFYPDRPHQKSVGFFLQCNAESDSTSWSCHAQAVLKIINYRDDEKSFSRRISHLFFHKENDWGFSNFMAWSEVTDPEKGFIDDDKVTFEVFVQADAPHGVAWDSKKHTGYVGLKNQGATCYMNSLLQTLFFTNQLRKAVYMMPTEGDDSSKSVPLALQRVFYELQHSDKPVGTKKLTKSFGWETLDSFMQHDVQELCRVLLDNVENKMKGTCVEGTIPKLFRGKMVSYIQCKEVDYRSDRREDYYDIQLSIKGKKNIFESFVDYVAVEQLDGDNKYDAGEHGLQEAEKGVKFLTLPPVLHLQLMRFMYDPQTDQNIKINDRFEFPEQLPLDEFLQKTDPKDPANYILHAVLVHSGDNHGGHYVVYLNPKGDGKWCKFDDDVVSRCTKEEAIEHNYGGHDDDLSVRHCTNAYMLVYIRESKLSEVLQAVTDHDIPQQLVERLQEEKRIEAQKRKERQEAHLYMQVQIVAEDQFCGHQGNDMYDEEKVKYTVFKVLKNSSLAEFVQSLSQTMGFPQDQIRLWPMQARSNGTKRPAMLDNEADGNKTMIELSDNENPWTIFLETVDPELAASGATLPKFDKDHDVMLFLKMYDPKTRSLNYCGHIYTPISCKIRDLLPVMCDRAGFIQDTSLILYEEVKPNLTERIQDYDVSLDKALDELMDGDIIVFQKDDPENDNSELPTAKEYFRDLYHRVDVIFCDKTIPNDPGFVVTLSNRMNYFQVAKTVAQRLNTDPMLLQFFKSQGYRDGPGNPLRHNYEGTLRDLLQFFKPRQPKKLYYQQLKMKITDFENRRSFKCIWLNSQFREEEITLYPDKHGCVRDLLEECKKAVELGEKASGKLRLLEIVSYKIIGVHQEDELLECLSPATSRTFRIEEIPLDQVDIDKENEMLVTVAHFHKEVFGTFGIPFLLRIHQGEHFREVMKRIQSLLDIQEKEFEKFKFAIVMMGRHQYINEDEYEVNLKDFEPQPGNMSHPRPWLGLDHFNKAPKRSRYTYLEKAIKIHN
UniProt Q92793: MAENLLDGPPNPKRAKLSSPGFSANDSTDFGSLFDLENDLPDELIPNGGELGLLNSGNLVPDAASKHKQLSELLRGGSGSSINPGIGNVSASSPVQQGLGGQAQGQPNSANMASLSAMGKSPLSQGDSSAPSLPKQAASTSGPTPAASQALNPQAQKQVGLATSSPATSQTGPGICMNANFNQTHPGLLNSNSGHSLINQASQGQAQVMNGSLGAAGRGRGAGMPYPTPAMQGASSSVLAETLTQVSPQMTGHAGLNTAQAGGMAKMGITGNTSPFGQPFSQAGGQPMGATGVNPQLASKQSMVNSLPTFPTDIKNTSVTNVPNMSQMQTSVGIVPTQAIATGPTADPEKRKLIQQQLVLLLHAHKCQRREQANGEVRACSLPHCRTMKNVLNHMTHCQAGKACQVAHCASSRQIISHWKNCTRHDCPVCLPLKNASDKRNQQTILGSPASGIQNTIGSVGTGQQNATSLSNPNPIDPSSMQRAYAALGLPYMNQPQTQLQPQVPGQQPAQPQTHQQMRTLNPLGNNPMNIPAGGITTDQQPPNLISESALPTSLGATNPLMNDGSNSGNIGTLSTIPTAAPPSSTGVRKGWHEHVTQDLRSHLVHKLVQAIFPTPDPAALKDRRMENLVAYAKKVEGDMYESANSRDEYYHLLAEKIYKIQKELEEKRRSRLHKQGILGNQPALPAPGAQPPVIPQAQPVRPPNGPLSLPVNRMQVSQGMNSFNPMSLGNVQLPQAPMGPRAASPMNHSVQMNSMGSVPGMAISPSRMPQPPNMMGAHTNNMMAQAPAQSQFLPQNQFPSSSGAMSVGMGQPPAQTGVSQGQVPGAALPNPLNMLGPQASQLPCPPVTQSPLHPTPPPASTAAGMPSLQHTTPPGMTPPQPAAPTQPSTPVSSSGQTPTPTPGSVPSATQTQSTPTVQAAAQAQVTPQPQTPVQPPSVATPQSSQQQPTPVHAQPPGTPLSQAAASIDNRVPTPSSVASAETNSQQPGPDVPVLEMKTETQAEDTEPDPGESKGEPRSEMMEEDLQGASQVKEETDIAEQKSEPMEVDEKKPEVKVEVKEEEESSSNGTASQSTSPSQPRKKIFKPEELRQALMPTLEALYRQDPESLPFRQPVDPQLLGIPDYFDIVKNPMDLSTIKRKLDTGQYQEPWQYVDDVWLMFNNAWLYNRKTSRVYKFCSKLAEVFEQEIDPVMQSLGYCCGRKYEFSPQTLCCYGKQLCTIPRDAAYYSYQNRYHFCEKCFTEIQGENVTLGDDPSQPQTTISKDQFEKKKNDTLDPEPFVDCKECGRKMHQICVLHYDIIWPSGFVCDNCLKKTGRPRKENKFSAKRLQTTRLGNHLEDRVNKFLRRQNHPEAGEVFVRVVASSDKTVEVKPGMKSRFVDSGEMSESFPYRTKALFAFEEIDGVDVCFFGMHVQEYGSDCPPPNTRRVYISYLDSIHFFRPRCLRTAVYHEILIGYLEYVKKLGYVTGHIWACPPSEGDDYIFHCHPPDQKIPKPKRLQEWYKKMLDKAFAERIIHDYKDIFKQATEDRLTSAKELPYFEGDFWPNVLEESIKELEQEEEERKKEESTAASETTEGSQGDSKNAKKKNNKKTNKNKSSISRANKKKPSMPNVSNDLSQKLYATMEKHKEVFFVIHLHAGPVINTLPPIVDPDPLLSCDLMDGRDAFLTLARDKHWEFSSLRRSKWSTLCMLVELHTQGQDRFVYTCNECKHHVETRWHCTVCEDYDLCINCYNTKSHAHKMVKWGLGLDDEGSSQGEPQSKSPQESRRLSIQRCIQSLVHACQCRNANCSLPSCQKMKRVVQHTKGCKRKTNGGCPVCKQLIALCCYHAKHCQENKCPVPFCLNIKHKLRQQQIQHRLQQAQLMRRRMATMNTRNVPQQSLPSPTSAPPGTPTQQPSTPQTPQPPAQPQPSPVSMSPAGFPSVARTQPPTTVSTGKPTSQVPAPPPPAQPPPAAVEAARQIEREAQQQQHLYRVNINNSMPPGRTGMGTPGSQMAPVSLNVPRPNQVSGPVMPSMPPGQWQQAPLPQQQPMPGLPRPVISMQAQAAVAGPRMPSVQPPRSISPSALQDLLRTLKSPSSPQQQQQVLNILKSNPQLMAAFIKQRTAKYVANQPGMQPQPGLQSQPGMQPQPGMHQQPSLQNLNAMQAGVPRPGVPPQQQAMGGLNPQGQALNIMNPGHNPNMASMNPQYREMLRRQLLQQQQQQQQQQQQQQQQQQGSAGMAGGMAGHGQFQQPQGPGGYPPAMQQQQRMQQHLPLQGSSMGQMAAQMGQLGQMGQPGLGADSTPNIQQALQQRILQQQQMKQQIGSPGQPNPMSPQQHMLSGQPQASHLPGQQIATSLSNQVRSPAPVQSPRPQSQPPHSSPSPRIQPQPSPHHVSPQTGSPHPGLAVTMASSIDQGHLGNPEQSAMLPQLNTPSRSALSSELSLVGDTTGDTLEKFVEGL
UniProt P49336: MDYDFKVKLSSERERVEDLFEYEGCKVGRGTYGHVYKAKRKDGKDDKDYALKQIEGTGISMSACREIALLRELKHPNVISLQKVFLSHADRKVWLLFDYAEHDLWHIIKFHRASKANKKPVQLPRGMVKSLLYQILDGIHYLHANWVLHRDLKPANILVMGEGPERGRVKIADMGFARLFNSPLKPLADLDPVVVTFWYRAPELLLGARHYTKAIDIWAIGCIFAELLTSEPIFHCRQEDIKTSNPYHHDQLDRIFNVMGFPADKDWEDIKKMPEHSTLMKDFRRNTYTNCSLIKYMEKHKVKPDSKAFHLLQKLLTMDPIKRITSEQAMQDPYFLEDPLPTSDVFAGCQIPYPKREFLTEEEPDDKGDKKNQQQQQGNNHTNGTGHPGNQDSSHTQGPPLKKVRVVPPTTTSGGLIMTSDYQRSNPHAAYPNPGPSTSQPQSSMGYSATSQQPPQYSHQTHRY
UniProt O75317: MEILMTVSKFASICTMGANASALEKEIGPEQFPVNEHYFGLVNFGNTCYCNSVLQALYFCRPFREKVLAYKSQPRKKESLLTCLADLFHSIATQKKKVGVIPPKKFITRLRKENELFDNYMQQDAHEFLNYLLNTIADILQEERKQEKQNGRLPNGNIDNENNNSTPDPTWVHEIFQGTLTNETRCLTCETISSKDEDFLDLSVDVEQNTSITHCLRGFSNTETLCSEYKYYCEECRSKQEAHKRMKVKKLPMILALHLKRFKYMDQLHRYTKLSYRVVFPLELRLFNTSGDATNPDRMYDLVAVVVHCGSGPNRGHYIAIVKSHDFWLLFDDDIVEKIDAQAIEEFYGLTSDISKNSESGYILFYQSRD

From article PMC5155157 come the findings set out here.

Where two headings read alike, the source gives them in different places. Results are given in words; binding and its absence hold for the method and conditions named. In cells and extracts the contact can be indirect. Some entries that bind do so weakly or less than the wild type.

On to “CBP, endogenous (from UniProt Q92793 1-2442) (enzyme)”, for which the binding entry in assay [1] was “binds”.

Consider CDK8 (from UniProt P49336 1-464), for which, in assay [2], the binding result is “binds”.

Turning to “HAUSP^K443R mutant (from UniProt Q93009 1-1102) (enzyme)”, the binding result in assay [3] is reported as “binds”.

As to “HIF-1α, endogenous in human cancer cell lines (from UniProt Q16665 1-826)”, the binding result in assay [2] is “binds”.

For “USP12 (from UniProt O75317 1-370) (enzyme)”, the binding entry in assay [3] is listed as “no binding”.

As to “HIF-1α N-terminal (a.a. 1–400) domain, expressed in cells (from UniProt Q16665 1-400) (domain or fragment)”, the binding entry in assay [4] is “binds”.

For the molecule “truncated HAUSP (a.a. 210–1100) (from UniProt Q93009 210-1100) (domain or fragment)”, the binding result in assay [3] is “no binding”.

On to “Flag-CBP wild type, overexpressed (from UniProt Q92793 1-2442) (enzyme)”, for which the binding entry in assay [3] was “binds”.

Take “HAUSP (USP7) wild type, overexpressed (from UniProt Q93009 1-1102) (enzyme)”: the binding result in assay [3] was “binds”; with HIF-1α^S366A mutant, “no binding”.

B1: AFF4 (protein, UniProt Q9UHB7 1-1163)
chain: MNREDRNVLRMKERERRNQEIQQGEDAFPPSSPLFAEPYKVTSKEDKLSSRIQSMLGNYDEMKDFIGDRSIPKLVAIPKPTVPPSADEKSNPNFFEQRHGGSHQSSKWTPVGPAPSTSQSQKRSSGLQSGHSSQRTSAGSSSGTNSSGQRHDRESYNNSGSSSRKKGQHGSEHSKSRSSSPGKPQAVSSLNSSHSRSHGNDHHSKEHQRSKSPRDPDANWDSPSRVPFSSGQHSTQSFPPSLMSKSNSMLQKPTAYVRPMDGQESMEPKLSSEHYSSQSHGNSMTELKPSSKAHLTKLKIPSQPLDASASGDVSCVDEILKEMTHSWPPPLTAIHTPCKTEPSKFPFPTKESQQSNFGTGEQKRYNPSKTSNGHQSKSMLKDDLKLSSSEDSDGEQDCDKTMPRSTPGSNSEPSHHNSEGADNSRDDSSSHSGSESSSGSDSESESSSSDSEANEPSQSASPEPEPPPTNKWQLDNWLNKVNPHKVSPASSVDSNIPSSQGYKKEGREQGTGNSYTDTSGPKETSSATPGRDSKTIQKGSESGRGRQKSPAQSDSTTQRRTVGKKQPKKAEKAAAEEPRGGLKIESETPVDLASSMPSSRHKAATKGSRKPNIKKESKSSPRPTAEKKKYKSTSKSSQKSREIIETDTSSSDSDESESLPPSSQTPKYPESNRTPVKPSSVEEEDSFFRQRMFSPMEEKELLSPLSEPDDRYPLIVKIDLNLLTRIPGKPYKETEPPKGEKKNVPEKHTREAQKQASEKVSNKGKRKHKNEDDNRASESKKPKTEDKNSAGHKPSSNRESSKQSAAKEKDLLPSPAGPVPSKDPKTEHGSRKRTISQSSSLKSSSNSNKETSGSSKNSSSTSKQKKTEGKTSSSSKEVKEKAPSSSSNCPPSAPTLDSSKPRRTKLVFDDRNYSADHYLQEAKKLKHNADALSDRFEKAVYYLDAVVSFIECGNALEKNAQESKSPFPMYSETVDLIKYTMKLKNYLAPDATAADKRLTVLCLRCESLLYLRLFKLKKENALKYSKTLTEHLKNSYNNSQAPSPGLGSKAVGMPSPVSPKLSPGNSGNYSSGASSASASGSSVTIPQKIHQMAASYVQVTSNFLYATEIWDQAEQLSKEQKEFFAELDKVMGPLIFNASIMTDLVRYTRQGLHWLRQDAKLIS
On to B1, for which the binding entry (in assay [5]; in assay [6]; with HAUSP^K443R mutant) was “binds” each time.

B2: MED26 (protein, UniProt O95402 1-600)
chain: MTAAPASPQQIRDRLLQAIDPQSNIRNMVAVLEVISSLEKYPITKEALEETRLGKLINDVRKKTKNEELAKRAKKLLRSWQKLIEPAHQHEAALRGLAGATGSANGGAHNCRPEVGAAGPPRSIHDLKSRNDLQRLPGQRLDRLGSRKRRGDQRDLGHPGPPPKVSKASHDPLVPNSSPLPTNGISGSPESFASSLDGSGHAGPEGSRLERDENDKHSGKIPVNAVRPHTSSPGLGKPPGPCLQPKASVLQQLDRVDETPGPPHPKGPPRCSFSPRNSRHEGSFARQQSLYAPKGSVPSPSPRPQALDATQVPSPLPLAQPSTPPVRRLELLPSAESPVCWLEQPESHQRLAGPGCKAGLSPAEPLLSRAGFSPDSSKADSDAASSGGSDSKKKKRYRPRDYTVNLDGQVAEAGVKPVRLKERKLTFDPMTRQIKPLTQKEPVRADSPVHMEQQSRTELDKQEAKASLQSPFEQTNWKELSRNEIIQSYLSRQSSLLSSSGAQTPGAHHFMSEYLKQEESTRQGARQLHVLVPQSPPTDLPGLTREVTQDDLDRIQASQWPGVNGCQDTQGNWYDWTQCISLDPHGDDGRLNILPYVCLD
For B2, the binding result in assay [5] is “binds”.
